According to PubChem BioAssay AID1460 (National Center for Advancing Translational Sciences (NCATS), 2008):
The campaign covered roughly 270,000 compounds. About 5,800 (2.1%) were called active. This list was built around the results that the source calls inconclusive (neither active nor inactive); the mix of calls is not that of the screen. Calls come from the whole dose curve; as a rule, active = well fitted inhibition curve with a large enough effect; inconclusive = small, poorly fitted or top-dose-only effect; inactive = flat fitted curve, though single readings scatter. A potency beside an inconclusive call is a rough fit, not a confirmed value.

target: Microtubule-associated protein tau (Homo sapiens) (UniProt P10636); test: qHTS for Inhibitors of Tau Fibril Formation, Thioflavin T Binding; details: recombinant tau K18 P301L (four-repeat tau fragment), heparin-induced fibrillization, ThT fluorescence; series mostly up to 57.4 µM; activity, negative = inhibition: at the top concentration; note: nearly all actives have a fitted effect of over 55% in size
Sequence of UniProt P10636 (P10636 whole entry, looked up, the tested form may be a part): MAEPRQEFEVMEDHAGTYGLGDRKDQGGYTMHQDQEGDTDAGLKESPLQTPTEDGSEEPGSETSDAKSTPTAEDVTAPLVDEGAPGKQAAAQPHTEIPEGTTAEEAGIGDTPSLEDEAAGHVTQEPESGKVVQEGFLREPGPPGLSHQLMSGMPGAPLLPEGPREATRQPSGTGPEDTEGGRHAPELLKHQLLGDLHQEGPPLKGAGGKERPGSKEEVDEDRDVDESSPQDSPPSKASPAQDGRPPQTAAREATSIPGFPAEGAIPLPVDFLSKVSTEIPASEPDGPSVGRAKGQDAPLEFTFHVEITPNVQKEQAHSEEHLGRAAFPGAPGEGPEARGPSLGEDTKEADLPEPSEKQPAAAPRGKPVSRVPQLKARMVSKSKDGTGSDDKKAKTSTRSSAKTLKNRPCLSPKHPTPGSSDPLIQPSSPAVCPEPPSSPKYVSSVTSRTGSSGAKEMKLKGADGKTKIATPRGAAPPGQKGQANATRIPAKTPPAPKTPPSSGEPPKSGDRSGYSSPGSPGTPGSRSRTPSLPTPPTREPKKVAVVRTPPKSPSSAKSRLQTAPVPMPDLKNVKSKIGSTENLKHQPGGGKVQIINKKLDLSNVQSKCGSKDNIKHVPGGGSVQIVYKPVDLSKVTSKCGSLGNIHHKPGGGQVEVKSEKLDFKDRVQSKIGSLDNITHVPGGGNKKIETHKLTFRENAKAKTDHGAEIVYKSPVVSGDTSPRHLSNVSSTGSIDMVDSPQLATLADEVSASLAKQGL
Method in brief: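 Recombinant human tau K18 fragment […] carrying P301L, 15 uM unlabeled plus 0.24 uM Alexa 594-labeled, was fibrillized with 20 uM heparin in 100 mM sodium acetate pH 7 for 6 hr at 37 C; 30 uM ThT fluorescence read after 1 hr.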
% is set by controls: 0 for no effect and ±100 for the full control effect; potency is the fitted concentration of half-maximal effect; tags give direction and shape of the fitted curve.

| SMILES | Potency | activity, negative = inhibition |
| --- | --- | --- |
| CCOc1ccc(S(=O)(=O)N2CCN(c3ccc(OC)cc3)CC2)c2cccnc12 | inconclusive: 12.6 µM [inhibitor, partial curve] | – |
| Oc1nc(Nc2ccc(Cl)cc2Cl)sc1/C=C1\C=Nc2ccccc21 | active: 8.91 µM | – |
| COc1cccc2cc(C(=O)C3=C(O)C(=O)N(CCN(C)C)C3c3ccc(F)cc3)oc12 (stereo unspecified) | – | inactive: -11.5% |
| Cc1ccc(S(=O)(=O)Cn2nnnc2C(C(C)C)N2CCc3ccccc3C2)cc1 (stereo unspecified) | inconclusive: 28.2 µM [inhibitor, single point] | – |
| COc1cccc(-n2cn[nH]c2=S)c1 | – | inactive: -8.67% |
| COc1ccc2c(c1)Cc1sc(NC(=O)c3cccc(Br)c3)nc1-2 | active: 3.98 µM | – |
| CCOc1nc(-c2ccccc2)ccc1-c1noc(COc2ccccc2)n1 | inconclusive: 12.6 µM [inhibitor, partial curve] | – |
| CSc1nc2ccc(NC(=O)c3ccc(Cl)s3)cc2s1 | – | inactive: 2.59% |
| CC(=Nc1cccc(C)c1)c1sc2ccccc2c1O | inconclusive: 14.1 µM [inhibitor, partial curve] | – |
| CCCOc1ccc(N)cc1N | active: 3.16 µM | – |
| CC(=O)c1cc(C#N)c(SCc2ccccn2)nc1C | inconclusive: 28.2 µM [inhibitor, partial curve, poor fit] | – |
| Cc1ccc(NC(=O)CNc2ccc(N3CCOCC3)cc2)cc1S(=O)(=O)N(C)C | inconclusive: 11.2 µM [inhibitor, partial curve] | – |
| Nc1c2ccccc2nc2ccccc12 | inconclusive: 3.98 µM [inhibitor, single point] | – |
| c1ccc(C2=Nn3c(nnc3-c3ccncc3)SC2)cc1 | – | inactive: -4.43% |
| COc1ccccc1S(=O)(=O)Cc1ccc(C(=O)NCCN2CCCCCC2)o1 | – | inactive: -4.89% |
| CCCCNC(=S)N(C)/N=C/c1ccc(F)cc1 | – | inactive: 9.83% |
| Cc1cc(C)c2c(N)c(C(=O)N/N=C/c3cccnc3)sc2n1 | inconclusive: 10 µM [inhibitor, partial curve] | – |
| Cc1nc2ccccn2c1C(=O)N/N=C/c1cc(C)n(-c2ccc(Br)cc2)c1C | inconclusive: 39.8 µM [inhibitor, single point] | – |
| COc1ccc(/C=N/N=C2\SC(CC(=O)O)C(=O)N2c2ccccc2)cc1 (stereo unspecified) | – | inactive: -4.11% |
| O=C1Cc2ccccc2C(=O)N1Cc1ccccc1 | inconclusive: 8.91 µM [inhibitor, partial curve, poor fit] | – |
| Cc1cc(=O)oc2c(C(=O)/C=C\c3cccs3)c(O)ccc12 | inconclusive: 12.6 µM [inhibitor, partial curve] | – |
| N#CC(C#N)=C/C(C#N)=C(/N)N1CCN(c2ccc(Cl)cc2)CC1 | inconclusive: 0.708 µM [inhibitor, full curve] | – |
| COCCOC(=O)c1[nH]c2c(c1C)C(=O)CC(c1ccco1)C2 (stereo unspecified) | – | inactive: -15.5% |
| CCOC(=O)/C=C/C(=O)OCC(=O)Nc1c(Cl)cccc1Cl | inconclusive: 12.6 µM [inhibitor, partial curve] | – |
| Cc1ccc(NC(=O)Cn2cc(C(=O)C3CC3)c3ccccc32)cc1C | – | inactive: 7.25% |
| Cc1cc(C)n(-c2nc(C)c(C)c(=O)n2CC(=O)Nc2ccc(OC(F)(F)F)cc2)n1 | – | inactive: -4.65% |

| SMILES | Potency | activity, negative = inhibition |
| --- | --- | --- |
| COc1ccc(OCc2nc(-c3ccc(-n4cccc4)cc3)no2)cc1 | inconclusive: 1.41 µM [inhibitor, full curve, poor fit] | – |
| Nn1c(SCC(=O)NC(=O)NCc2ccco2)nnc1-c1ccc(OC(F)F)cc1 | inconclusive: 11.2 µM [inhibitor, partial curve] | – |
| Cc1ccccc1CSc1ccc(-c2cccs2)nn1 | – | inactive: -7.13% |
| COc1cccc(-c2cn3ncsc3n2)c1 | inconclusive: 15.8 µM [inhibitor, partial curve] | – |
| COc1ccc(C2C(C#N)=C(N)Oc3cc(C)[nH]c(=O)c32)cc1OC (stereo unspecified) | – | inactive: 10.9% |
| N#Cc1c(N)sc2c1CCCCCC2 | inconclusive: 20 µM [inhibitor, single point] | – |
| Cc1cccc2cc(C#N)c(SCc3nnc(-c4ccccc4[N+](=O)[O-])o3)nc12 | inconclusive: 7.08 µM [inhibitor, partial curve] | – |
| COc1ccc(/C=N/NC(=O)CN(c2ccc(OC)cc2)S(=O)(=O)c2ccccc2)cc1 | – | inactive: 1.33% |
| Fc1ccc2c(c1)C(c1ccncc1)=NNC(c1ccc(Cl)cc1)=N2 | inconclusive: 10 µM [inhibitor, partial curve] | – |
| Cc1ccc2[nH]c3c(c2c1)CCc1cn[nH]c1-3 | active: 12.6 µM | – |
| O=c1oc2c3c(ccc2c2ccccc12)OCN(Cc1ccc(Cl)cc1)C3 | inconclusive: 11.2 µM [inhibitor, partial curve] | – |
| Cc1cc2cc(CNC(=O)c3cccc([N+](=O)[O-])c3)ccc2[nH]1 | inconclusive: 10 µM [inhibitor, partial curve] | – |
| CCC(=O)Nc1ccc(Nc2nc(Cl)nc(Nc3ccc(NC(=O)CC)cc3)n2)cc1 | inconclusive: 2 µM [inhibitor, full curve] | – |
| Cn1c(CNC(=O)c2ccccc2)nnc1SCC(=O)Nc1nccs1 | – | inactive: -0.431% |
| CCC/C(=N/NC(=O)c1csc(C)c1C)c1ccc(Cl)s1 | – | inactive: -9.83% |
| CC(C)N(CC(=O)Nc1ccc(Cl)cc1C(F)(F)F)C(=O)CCl | – | inactive: -5.02% |
| CS(=O)(=O)c1ccc(Cl)c(NC(=O)CCl)c1 | inconclusive: 31.6 µM [inhibitor, single point] | – |
| COc1ccc(/C=C2/C(=O)N(CC3CCCO3)C(=S)N2C)c(OC)c1 (stereo unspecified) | inconclusive: 15.8 µM [inhibitor, partial curve] | – |
| O=C(NCC(c1cccs1)S(=O)(=O)c1cccs1)c1cccc(F)c1 (stereo unspecified) | – | inactive: -1.93% |
| Cc1cccc(N=Cc2c(O)cc(C)oc2=O)c1 | – | inactive: 0.399% |
| O=c1/c(=C\c2ccc(O)cc2)sc2nc(-c3ccccc3)c(-c3ccccc3)n12 | inconclusive: 2 µM [inhibitor, full curve] | – |
| Fc1ccccc1CSc1ncn[nH]1 | – | inactive: 5.66% |
| Cc1oc(-c2cccs2)nc1CN1CCC(CO)(CCOc2ccccc2)CC1 | – | inactive: 1.69% |
| CCOc1ccc2nc(NC(=O)Nc3ccccc3)sc2c1 | inconclusive: 10 µM [activator, partial curve] | – |
| O=C(/C=C/c1ccc(OC2CSC2)cc1)c1ccccc1 | inconclusive: 25.1 µM [inhibitor, partial curve] | – |
| CC1=C(c2ccc(C)cc2)S(=O)(=O)N(Cc2ccc(C(=O)Nc3ccc(C)c(F)c3)cc2)C1=O | – | inactive: 12.3% |

| SMILES | Potency | activity, negative = inhibition |
| --- | --- | --- |
| CCOc1ccc(C(=O)Nc2ccc3nc(SCC(=O)N4CCc5ccccc54)sc3c2)cc1 | inconclusive: 3.98 µM [inhibitor, partial curve] | – |
| COc1cc(C2N3CC4(C)CN2CC(C)(C3)C4)ccc1O (stereo unspecified) | – | inactive: 4.68% |
| Cc1csc(Sc2ccc([N+](=O)[O-])cc2C(=O)OCC(=O)NC(=O)NC(C)(C)C)n1 | inconclusive: 39.8 µM [inhibitor, single point] | – |
| CC(C)C(=O)NC(=S)Nc1ccc(CN2CCOCC2)cc1 | – | inactive: -5.5% |
| COc1ccc(-c2nnc(-c3ccc(N(C)C)cc3)o2)cc1 | inconclusive: 1.58 µM [inhibitor, full curve] | – |
| O=C(CSc1nc(-c2ccco2)cc(C(F)(F)F)n1)N1CCN(Cc2ccccc2)CC1 | inconclusive: 12.6 µM [inhibitor, partial curve] | – |
| COc1ccc(-c2cc(-c3ccco3)[nH]c(=O)c2C#N)cc1OC | inconclusive: 31.6 µM [inhibitor, single point] | – |
| CCC(=O)Nc1cc2nn(-c3ccc(OC)cc3)nc2cc1C | – | inactive: -18.7% |
| CCOc1ccc(CCNC(=O)c2cc3sc(Cl)cc3n2C)cc1OCC | inconclusive: 3.98 µM [inhibitor, partial curve, poor fit] | – |
| CC1CC2(CCCCC2)Nc2c1ccc1ccccc21 (stereo unspecified) | inconclusive: 31.6 µM [inhibitor, single point] | – |
| O=C(O)/C=C/c1cn(-c2ccccc2)nc1-c1ccc(-c2ccc([N+](=O)[O-])cc2)o1 | active: 1.12 µM | – |
| Cc1ccccc1NC(=O)CCSc1nnnn1-c1ccccc1 | – | inactive: -1.09% |
| CCOC(=O)C1=Nc2ccccc2C1=[N+]=[N-] | inconclusive: 25.1 µM [inhibitor, single point] | – |
| O=C(O)c1cc(N/N=C/C(Cl)=C/c2ccccc2)ccc1Cl | active: 14.1 µM | – |
| CCOc1ccc(OCCSc2nc(C)cc(=O)[nH]2)cc1 | inconclusive: 14.1 µM [inhibitor, partial curve] | – |
| O=C(Nn1c(-c2ccccc2)nc2ccccc2c1=O)c1ccc([N+](=O)[O-])cc1 | – | inactive: -9.95% |
| CC(=O)/C(=N/Nc1ccc(C)cc1)Sc1nnc(CCc2ccccc2)n1-c1ccccc1 | inconclusive: 39.8 µM [inhibitor, single point] | – |
| O=c1oc2ccc3ccccc3c2cc1-c1nnc(Nc2ccccc2F)s1 | inconclusive: 5.62 µM [inhibitor, partial curve, poor fit] | – |
| CC(C)/C=N/Nc1nc(-c2ccc(Br)cc2)cs1 | inconclusive: 17.8 µM [inhibitor, partial curve] | – |
| CC(=O)c1ccc(NC(=S)N2CCN(c3cccc(Cl)c3)CC2)cc1 | – | inactive: -7.97% |
| Cc1cc(C)c(C#N)c(SCc2[nH]nc3c2C(c2ccccc2)C(C#N)=C(N)O3)n1 (stereo unspecified) | inconclusive: 25.1 µM [inhibitor, single point] | – |
| CCc1cc(-c2n[nH]c(C)c2Oc2ccc(C(C)C)cc2)c(O)cc1O | active: 28.2 µM | – |
| NS(=O)(=O)c1ccc(Nc2ccc3nonc3c2[N+](=O)[O-])cc1 | inconclusive: 11.2 µM [inhibitor, partial curve] | – |
| CCC(=O)Nc1ccc(/C(C)=N\NC(=O)c2ccc(C)s2)cc1 | inconclusive: 11.2 µM [inhibitor, partial curve] | – |
